# Laboratory results taken from ChEMBL document CHEMBL4888484, “Replenishing the malaria drug discovery pipeline: Screening and hit evaluation of the MMV Hit Generation Library 1 (HGL1) against asexual blood stage Plasmodium falciparum ,using a nano luciferase reporter read-out” (2022).
# The whole screen tested about 150,000 compounds, of which about 540 (0.36%) showed an effect of 50% or more. The list shows a part of the results.
# Tested on: Plasmodium falciparum
# Experiment: Primary screen in NF54 nanoGlo assay, in single point, at 2uM, 72h; a lower Z score goes with more inhibition
# Type: functional, Erythrocyte
# Conditions: timepoint 72 hour
SMILES,% Inhibition [%],Z score
O=c1cc(Cc2ccccc2)[nH]c2c(-c3ccccc3)c(C(F)(F)F)nn12,30,-3.45
CN1CCCN(c2nc(-c3ccccc3)nc3nc(-c4ccccc4)oc23)CC1,7,-0.98
CCn1ncc2c1CCCC2NC(C)C(=O)N1CCCC1 (stereo not drawn),-12,2.25
O=C(NC[C@H](NC(=O)C1=COCCC1)C1CCCCC1)C1=COCCC1,-2,0.38
CCC[C@@H](C#N)N(C)S(=O)(=O)c1ccccc1C(C)(C)C,-3,0.38
O=C(c1cccc(Br)c1)N1CC(=O)N2CCc3ccccc3[C@@H]2C1,-2,0.27
Cc1cccnc1N1CC[C@H](N2CCN(C)CC2)[C@H](CCC(=O)O)C1,-8,1.55
O=C1C2CC=CCC2C(=O)N1c1ccccn1 (stereo not drawn),-9,1.32
c1csc(CN2CC[C@H](c3nc4ccccc4s3)C2)c1,6,-0.85
O=c1nc(-c2ccccc2)on1Cc1cc(F)ccc1F,-29,3.41
CC1(CN2C(=O)[C@H]3CCCCN3C2=O)Cc2ccccc2C1,-2,0.22
CCc1noc(CN2c3ccccc3C[C@@H]2C)n1,-1,0.09
O=C1C[C@H](c2ccccc2F)c2sccc2N1,-9,1.34
CNC(=O)[C@@H]1CN(C(=O)CCc2cc(OC)no2)C[C@H]1c1nc(C)no1,-9,1.4
CC(=O)c1cccc(S(=O)(=O)N2CCN(C(=O)c3cc(C)nc4ccccc34)CC2)c1,-5,0.58
CC(C)c1cc(N2CCCC(O)C2)nc(CN2CCCC(O)C2)n1 (stereo not drawn),-8,1.11
OC[C@@H]1CCCN1Cc1nc(-c2ccccc2)no1,8,-1.06
Cc1cc2c(=O)n(CC(=O)N(C)c3ccccc3)c3cccnc3n2n1,-21,2.25
CC(C)N(C)S(=O)(=O)C1CON(C)C1c1cccc(OCc2ccccc2)c1 (stereo not drawn),-8,1.28
COc1cc2c(cc1OC)CN(C(=O)C[C@@H]1NC(=O)N(Cc3ccccc3Cl)C1=O)CC2,-14,1.96
CN(C)c1nc2cc(NC(=O)Cc3noc4ccccc34)ccc2o1,-15,2.38
CCC[C@]1(CO)CCCN(CCn2ccnc2)C1,11,-1.05
COCc1nc(C)cc(N2CC3CC=CCC3C2)n1 (stereo not drawn),-20,2.69
FCCn1ncnc1CN1CCCCC[C@H]1C1CCCCC1,48,-5.68
CC1(NC(=O)[C@@H]2CC[C@H](C(=O)NC3(C)CCCOC3)C2)CCCOC1 (stereo partly drawn),4,-0.83
C=CCn1c(C)c(CC(=O)Nc2ccccc2C)c(=O)n2nc(-c3ccc(C)cc3)nc12,-3,0.5
CC(C)c1ocnc1C(=O)N[C@H]1CCc2nccn2C1,-2,0.41

SMILES,% Inhibition [%],Z score
C[C@@H](Cc1ccsc1)n1ccnc1-c1ccc(-n2ccnc2)cc1,-14,2.62
Cc1nc(C(=O)N[C@H]2CC[C@H]2NC2CCCCCCC2)cs1,4,-0.48
CN(Cc1cccn1-c1ncccn1)C[C@H]1CCCCO1,-5,1.07
O=C(NCC1(NC(=O)C2CCCOCC2)CC1)C1CCCOCC1 (stereo not drawn),-6,0.86
COC(=O)c1c(OCCO)nn(C)c1N,-3,0.47
COc1nscc1-c1noc(CCn2cccn2)n1,-12,1.64
Nc1c(Cl)cc(Cl)c(N)c1Cl,36,-5.25
Cc1cc(Cl)ccc1C(=O)NC(C)C(C)CO (stereo not drawn),-4,0.57
CCOc1ccc(NC(=O)C2CCN(c3c(C(=O)N(CC)CC)cnc4snc(C)c34)CC2)cc1,5,-0.93
Cc1cc(O[C@H]2CCN(S(=O)(=O)c3cccs3)C2)nc(C)n1,-7,1.1
Cc1cnn(C2(C(=O)O)CCN(c3nc4ccccc4o3)CC2)c1,-2,0.4
CN1CC[C@H](N(C)CCC(=O)NCc2cc(F)c(F)cc2F)C1,4,-0.62
CCCS(=O)(=O)N1CC(=O)N(c2ccc(C)c(Cl)c2)[C@](C)(C(=O)NC2CCCCCCC2)C1,-16,1.97
C[C@H]1CCCCN1CCN(C)S(=O)(=O)NCc1ccccc1,-2,0.43
CNC(=O)c1nsc(C(=O)N2CCN(c3cc(Cl)ccc3C)CC2)c1N,-10,1.21
CN(CCC#N)S(=O)(=O)NC1CC2CCC1(C)C2(C)C (stereo not drawn),-2,0.32
CCn1ncc(C(=O)N[C@H](c2cnc3ccccc3c2)C2CC(O)C2)c1C (stereo partly drawn),-10,1.01
COc1ccc(C(=O)N(CCN2CCCC2)C2CCOCC2)cc1F,-9,1.39
CN(Cc1ccccc1)CC(C)(C)CNCc1cccnc1N1CCC(C(N)=O)CC1,-3,0.57
C=CCC1(CC=C)CCCN1C(=O)[C@@H]1CCCCO1,-5,1.05
CCCc1ncncc1C(=O)N(C)CCn1nc(C)cc1C,-7,1.42
CCOc1ccc(N2CCCCn3c2nc2c3c(=O)n(Cc3cccc(C)c3)c(=O)n2C)cc1,-8,0.93
CCC(=O)Nc1ccc2c(c1)c(=O)n(-c1ccccc1)n2CC(=O)Nc1ccccc1C,-9,1.19
Cc1nnc2ccc(N3CC(N(C)S(=O)(=O)Cc4cc(F)ccc4F)C3)nn12,-8,1.15
CCc1cc(=O)c2cc(NC(=O)C3(c4ccc(Cl)cc4)CCOCC3)ccc2[nH]1,-24,2.46
Cc1ccc2nc(-c3ccccc3)c(CN3CCC(C)CC3)c(O)c2c1,-8,1.57
O=C(O)CCc1nnc2n(CCOc3ccc(Cl)cc3)c3ccccc3n2c1=O,-12,2.34
